Laboratory results published in PubChem BioAssay AID1347120 (National Center for Advancing Translational Sciences (NCATS), 2019).
Screen size: about 390,000 compounds; about 930 (0.24%) were called active. Inconclusive means that the source gave no clear call. Such entries were picked first, then a sample of the others. Calls follow the shape of the dose curve; as a rule, active = well fitted activation curve with a large enough effect; inconclusive = small, poorly fitted or top-dose-only effect; inactive = no such curve, though single readings can be large or run the other way. Where the call is inconclusive, the potency comes from a doubtful curve fit.

Test: qHTS for Suppressors of FUS Proteinopathy: Primary screen using FUS-linked yeast assay; also: nearly all actives have a fitted effect of over 55% in size;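 as to growth rescue (activation): plate controls were DMSO vehicle for no effect and reference control for full effect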
Conditions: S. cerevisiae FUS-expressing, OD600, 24 h; Potency: growth rescue; growth rescue (activation): at 76.6 µM (top of the series)
In short: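 Toxicity suppression screen in FUS-yeast. Cells induced with 2% galactose, starting OD 0.005, treated 24hr at 30C with compounds at multiple final concentrations; growth by OD600.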
Potency is read from the fitted curve at half-maximal effect; tags tell the direction and shape of the fitted curve.

**Q.** For Cc1ccc(OCCN2CCC2(C)C(=O)NCc2ccc(C(F)(F)F)cc2)cc1 (configuration not stated), which Potency is on record?
**A.** The Potency was inconclusive: 22.4 µM [activator, partial curve].

**Q.** Which Potency does the source give for COc1ccc(NC(=O)c2oc3ccc4c(c3c2C)C(=O)CC(C)(C)O4)cc1OC here?
**A.** The Potency was inconclusive: 31.6 µM [activator, single point].

**Q.** With CC1(O)c2ccccc2C(=O)N1Cc1ccccc1 (configuration not stated) as the compound, how does the growth rescue (activation) read?
**A.** The growth rescue (activation) was inconclusive: 53.7% [activator].

**Q.** With N#Cc1cc(-c2ccccc2)nc(Oc2ccccc2)n1 as the compound, how does the Potency read?
**A.** Its Potency is “inactive”.

**Q.** For CCCCOCCCNC(=O)C[C@@H]1C[C@@]2(C(=O)OC)CCCCC=C2N(CCC2=CCCCC2)C1=O, which Potency is on record?
**A.** Its Potency is inconclusive: 35.5 µM [activator, single point].

**Q.** With COc1ccc(-c2noc(CSc3nnc(-c4ccncc4)n3-c3cccc(C)c3)n2)cc1OC as the compound, how does the Potency read?
**A.** Its Potency is inconclusive: 11.2 µM [activator, partial curve, poor fit].

**Q.** Which Potency does the source give for CC(C)C[C@H]1CNC(=S)N1CC1CCCN1C[C@H](Cc1ccccc1)N1C[C@H](Cc2ccc(O)cc2)N(CC2CCCCCC2)C1=S (some centres not stated) here?
**A.** Its Potency is inconclusive: 28.2 µM [activator, single point].

**Q.** With CCc1ccc(NC(=S)N(CCCN2CCOCC2)Cc2ccccn2)cc1 as the compound, how does the Potency read?
**A.** The Potency was “inactive”.

**Q.** For NS(=O)(=O)c1ccc(NC(=O)CSc2nnc(-c3cccs3)o2)cc1, which Potency is on record?
**A.** The Potency was “inactive”.

**Q.** With COc1ccc(S(=O)(=O)N2CCc3ccccc32)cc1C(=O)NCCc1ccccn1 as the compound, how does the Potency read?
**A.** Its Potency is “inactive”.

**Q.** With CC(C)(C)OC(=O)C[C@@H]1C/C=C\C[C@H](CC(=O)N(CCO)Cc2ccccc2)C(=O)N[C@@H](Cc2ccccc2)COC1=O as the compound, how does the Potency read?
**A.** The Potency was inconclusive: 25.1 µM [activator, partial curve].

**Q.** Which Potency does the source give for O=C(c1ccc(Cl)cc1)N1CCN(S(=O)(=O)/C=C/c2ccccc2)CC1 here?
**A.** Its Potency is inconclusive: 28.2 µM [activator, partial curve, poor fit].

**Q.** Which Potency does the source give for CC(C)c1ccc(N(CC(=O)NCC2CCCO2)C(=O)Cn2nnc(-c3cccs3)n2)cc1 (configuration not stated) here?
**A.** The Potency was inconclusive: 4.47 µM [activator, full curve].

**Q.** For O=C(c1ccc(Cl)c([N+](=O)[O-])c1)N(Cc1ccc(Cl)cc1)C1CCS(=O)(=O)C1 (configuration not stated), which Potency is on record?
**A.** The Potency was inconclusive: 56.2 µM [activator, partial curve, poor fit].

**Q.** For COc1ccc(NC(=O)N(C)C[C@H]2Oc3c(NS(=O)(=O)c4cccs4)cccc3C(=O)N([C@H](C)CO)C[C@@H]2C)cc1, which Potency is on record?
**A.** Its Potency is inconclusive: 28.2 µM [activator, single point].

**Q.** With CCOC(=O)c1sc2nc(OCc3cccnc3)cc(C)c2c1N as the compound, how does the Potency read?
**A.** Its Potency is “inactive”.

**Q.** With COc1ccc(NS(=O)(=O)c2cc3c4c(c2)CC(=O)N4CCC3)cc1Cl as the compound, how does the Potency read?
**A.** The Potency was inconclusive: 31.6 µM [activator, single point].

**Q.** For COc1cc(C)ccc1N(CCCN1C(=O)c2cccc3cccc(c23)C1=O)C(=O)c1cccs1, which Potency is on record?
**A.** The Potency was inconclusive: 12.6 µM [activator, partial curve].

**Q.** With Cc1ccccc1Nc1nc(N)nc(COC(=O)c2cccn2C)n1 as the compound, how does the Potency read?
**A.** The Potency was inconclusive: 50.1 µM [activator, partial curve, poor fit].

**Q.** Which Potency does the source give for CCCc1ccc2oc(C(=O)NCCc3nc(C(=O)OCC)cs3)c(C)c2c1 here?
**A.** Its Potency is inconclusive: 31.6 µM [activator, partial curve, poor fit].

**Q.** Which Potency does the source give for N#Cc1ccsc1NC(=O)CCN1CCN(C(c2ccccc2)c2ccccc2)CC1 here?
**A.** The Potency was inconclusive: 0.891 µM [activator, full curve, poor fit].

**Q.** With Cc1ccc(C)c(NS(=O)(=O)c2ccc3c(c2)CCCN3C(=O)C2CCC2)c1 as the compound, how does the Potency read?
**A.** Its Potency is inconclusive: 28.2 µM [activator, single point].

**Q.** Which Potency does the source give for CC(NC(=O)NCc1cccnc1)(C(F)(F)F)C(F)(F)F here?
**A.** Its Potency is inconclusive: 7.94 µM [activator, single point].

**Q.** Which Potency does the source give for Cc1ccc(NC(=O)c2nc[nH]c2C(=O)N[C@@H](CCCCNC(=O)OC(C)(C)C)C(=O)OC(C)(C)C)cc1 here?
**A.** The Potency was inconclusive: 50.1 µM [activator, single point].

**Q.** For Cc1ccc(P(=O)(O)c2ccc(C)cc2)cc1, which growth rescue (activation) is on record?
**A.** Its growth rescue (activation) is inconclusive: -60.1% [activator].

**Q.** For Cc1ccc(NC(=O)N2CCc3c([nH]c4ccccc34)C2c2ccccc2F)c(Cl)c1 (configuration not stated), which Potency is on record?
**A.** Its Potency is inconclusive: 28.2 µM [activator, single point].

**Q.** For Cc1ccc(Cn2c(=N)c(C(=O)NCc3ccco3)cc3c(=O)n4ccccc4nc32)cc1, which Potency is on record?
**A.** Its Potency is inconclusive: 28.2 µM [activator, partial curve, poor fit].

**Q.** For COc1cc(S(=O)(=O)N2CCOCC2)ccc1NC(=O)COc1ccc(N(C)S(=O)(=O)c2ccc(C)cc2)cc1, which Potency is on record?
**A.** The Potency was inconclusive: 10 µM [activator, full curve].

**Q.** For COc1ccccc1/C=C/C=c1\sc2nc(=O)c(Cc3ccccc3)nn2c1=O, which Potency is on record?
**A.** Its Potency is inconclusive: 17.8 µM [activator, partial curve, poor fit].

**Q.** Which Potency does the source give for COc1cc(OC)c(NC(=O)C(C)n2nc(-c3ccc(C)c(C)c3)ccc2=O)cc1Cl (configuration not stated) here?
**A.** The Potency was inconclusive: 20 µM [activator, partial curve].

**Q.** Which Potency does the source give for O=C(NCc1nnc(SCc2ccc(F)cc2)n1-c1ccc(F)cc1)C12CC3CC(CC(C3)C1)C2 here?
**A.** The Potency was inconclusive: 17.8 µM [activator, single point].

**Q.** Which Potency does the source give for CCc1ccccc1N1CC(c2nc3ccccc3n2CCC2CCCCC2)CC1=O (configuration not stated) here?
**A.** Its Potency is inconclusive: 28.2 µM [activator, partial curve].

**Q.** Which Potency does the source give for COc1ccc(S(=O)(=O)Nc2c(O)ccc3ccccc23)cc1OC here?
**A.** Its Potency is “inactive”.

**Q.** For COc1ccc(CCNC(=S)Nc2ccc(C(C)C)cc2)cc1, which Potency is on record?
**A.** The Potency was inconclusive: 31.6 µM [activator, partial curve, poor fit].

**Q.** Which Potency does the source give for O=C(C1CCCCC1)N1C[C@H](n2cc(-c3ccc(F)cc3)nn2)[C@@H](O)C[C@@H]1c1ccc(Cl)cc1 here?
**A.** The Potency was inconclusive: 31.6 µM [activator, single point].

**Q.** With COc1ccc(C(=O)Nc2ccc3c(c2)N(C)C(=O)c2ccccc2S3)cc1OC as the compound, how does the Potency read?
**A.** The Potency was inconclusive: 25.1 µM [activator, partial curve, poor fit].

**Q.** Which Potency does the source give for Cc1cccc(NC(=O)COC(=O)c2cccc(S(=O)(=O)N3CCCCCC3)c2)c1 here?
**A.** The Potency was inconclusive: 28.2 µM [activator, single point].
